Data: PubChem BioAssay AID1508623 (National Center for Advancing Translational Sciences (NCATS), 2021)
The campaign covered roughly 48,000 compounds. About 450 (0.94%) were called active. Another 19% or so got no clear call; they are omitted. Calls come from the whole dose curve; as a rule, active = well fitted inhibition curve with a large enough effect; inconclusive = small, poorly fitted or top-dose-only effect; inactive = no such curve, though single readings can be large or run the other way. This is one part of the list.

test: Primary qHTS for Identification of Small Molecule Inhibitors of Huntingtin Promoter Activity; conditions: HEK293 HTT promoter firefly luciferase reporter (activity 0% = vehicle and -100% = no light), 24 h; series mostly up to 57.5 µM; activity change, negative = inhibition: at the top concentration; note: nearly all actives have a fitted effect of over 50% in size
In short: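 HEK293 luciferase promoter-reporter cells (2,500/well) plated 24 h, then compounds added at up to 57.5 uM final for 24 h at 37 °C. Firefly luminescence by Dual-Glo, normalized to vehicle (0%) and zero RLU (-100%).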

Activity change, negative = inhibition, inactive:
c1cc(-c2cnn3cc(-c4ccc(OCCN5CCCCC5)cc4)cnc23)ccn1 -22.2%, CCSc1nnc2c(n1)OC(c1ccc(OC)cc1OC)N(C(C)=O)c1ccccc1-2 (stereo not given) -20.6%, CCC(=O)O[C@]1(C(=O)COC)[C@@H](C)C[C@H]2[C@@H]3CCC4=CC(=O)C=C[C@]4(C)C3(F)[C@@H](O)C[C@@]21C (stereo not given in full) -0.813%, Cc1ccc(C2=NC(c3ccc(F)cc3)=Nc3ccc(C)cc3N2)cc1 2.71%, COc1ccccc1OCCCCn1c(C2CC(=O)N(c3ccccc3Cl)C2)nc2ccccc21 (stereo not given) -18%, Cc1ccc(NC(=O)/C(C#N)=C/c2ccccc2Cl)cc1C 2.18%, CCN(CC)CCNC(=O)CN1C(=O)c2cccnc2Oc2ccc(C)cc21 4.07%, COc1ccc(CCNC(=O)Cn2c(=O)n(-c3ccc(OC)c(OC)c3)c(=O)c3ccccc32)cc1OC -14.5%, COc1ccccc1OCC1CNC(=O)O1 (stereo not given) 14.9%, Cc1ccc(NC(=O)CN2c3ccccc3S(=O)(=O)c3ccccc32)cc1F -22.8%, CN(C)c1nc(Cc2ccc(NC(=O)c3ccc4ccccc4c3)cc2)nc(Cl)c1CC(=O)O 3.86%, Cc1nc(-c2ccc(S(=O)(=O)N3CCN(c4cccc(Cl)c4)CC3)cc2)co1 -24.4%, COc1cc(NC(=O)Cn2c(=O)n(CC(=O)NCCc3ccc(OC)c(OC)c3)c(=O)c3sccc32)cc(OC)c1 -6.6%, CC(=O)Nc1ccc(S(=O)(=O)NCC2CCC(C(=O)NCc3ccccc3Cl)CC2)cc1 (stereo not given) -13%, CSc1ccc(CNC(=O)Cc2csc3ccccc23)cc1 2.52%, CC(=O)NCCNc1nc2c(-c3cccc(C)c3)nnn2c2ccc(Cl)cc12 2.76%, COc1cccc(Nc2sc(C(=O)c3ccc4c(c3)OCO4)c(N)c2S(=O)(=O)c2ccccc2)c1 -28.2%, COc1ccc(N2CC(NC(=O)Cc3cccs3)CC2=O)cc1 (stereo not given) -1.19%, CCn1c(C)c(C)c2cc(C(=O)NCc3ccc(N(C)C)cc3)ccc21 -7.2%, COc1ccc(CNC(=O)CN(c2cc(C(F)(F)F)ccc2Cl)S(C)(=O)=O)cc1 -11%, O=C1[C@H](CC[C@H](O)c2ccc(F)cc2)[C@@H](c2ccc(O)cc2)N1c1ccc(F)cc1 -11.3%, Cc1ccc(C(=O)c2oc3ccccc3c2NC(=O)c2cc(-c3ccc(Cl)cc3)on2)cc1 -13.1%, COc1ccc(Cl)cc1NC(=O)Cn1ncc2c3ccccc3n(Cc3ccccc3)c2c1=O -4.66%, Cc1ccc(OCCCCn2cnc3ccccc32)cc1 -13.1%, CCN(CC)S(=O)(=O)c1ccc2c(c1)nc(CN(C)C(=O)Nc1ccc(F)cc1)n2C 7.19%, COc1cc(Cl)c(C)cc1NC(=O)CCc1c(C)nc2c3cccnc3nn2c1C 0.172%, COc1ccc(CNC(=O)CSc2n[nH]c(-c3ccc(F)cc3)n2)cc1 3.62%, CS(=O)(=O)c1ccccc1-c1nnc(NC(=O)c2ccc3c(c2)OCCO3)o1 -9.87%, Cc1ccc(C)c(CN2C(=O)c3ccccc3S(=O)(=O)c3ccc(C(=O)Nc4cc(F)ccc4F)cc32)c1 -19.7%, COc1ccc(NC(=O)c2nnn(CC(=O)Nc3c(C)cc(C)cc3C)c2N)cc1OC -5.71%, COc1ccc(CNC(=O)CN(c2ccc(C)cc2)S(=O)(=O)c2c(C)noc2C)cc1 -12.2%, COc1ccc(CNC(=O)C(CCSC)NS(=O)(=O)c2ccc3c(c2)oc(=O)n3C)cc1 (stereo not given) -0.965%, Cc1cc(C)cc(NC(=O)CSc2nc3c([nH]c4ccccc43)c(=O)n2-c2ccc(F)cc2)c1 -27.8%, CNC(=O)C(=O)NCC(c1ccc2c(c1)OCO2)N1CCOCC1 (stereo not given) -14%, CCOc1ccc(-c2cc(NC(=O)c3cccc(Cl)c3)c(C(=O)OC)s2)cc1 24.8%, CC1=C(C(=O)Nc2ccccc2)C(c2ccc(C)cc2)n2nc(SCc3ccccc3C)nc2N1 (stereo not given) 8.12%, CCCOc1ccc(C(=O)Nc2nonc2-c2ccc(OCC)cc2)cc1 -2.57%, O=C(c1ccc(F)cc1F)N1CCC(c2nc(-c3ccc(S(=O)(=O)N4CCCC4)cc3)no2)CC1 -2.38%, CCOC(=O)c1ccc(NC(=O)c2cn(-c3ccccc3)nc2-c2ccc(C)cc2)cc1 0.463%, CCCc1ccc(S(=O)(=O)N2CCC(c3nnnn3-c3ccc(OC)cc3)CC2)cc1 -7.22%, Cc1oc2cc3oc(=O)c(CC(=O)N4CCCCC4)c(C)c3cc2c1C -4.66%, N#CC1=C2SCN(C3CCCCC3)CN2C(=O)CC1c1ccc(Br)cc1 (stereo not given) -22%, CCOc1cc(C#N)c(NC(=O)c2ccc(OC)c(S(=O)(=O)N3CCN(c4ccccc4)CC3)c2)cc1OCC 12.1%, CN1CCOC(c2ccccc2)c2ccccc2C1 (stereo not given) 0.834%, COc1ccc(CNC(=O)Cn2c(=O)c3cccn3c3ccccc32)cc1 -9.16%, CCc1nnc2c(N3CCN(c4cccc(C(F)(F)F)c4)CC3)nc3ccccc3n12 0.21%, COc1ccc(N(CC(=O)N2CCc3ccccc3C2)S(=O)(=O)c2ccc(C)cc2)cc1Cl -13.1%, O=C(Cn1c(=O)n(Cc2ccco2)c(=O)c2oc3ccccc3c21)Nc1ccc(F)c(Cl)c1 -17.9%, CN1CCN(CCCNC(=O)c2cnn(-c3ccc(F)cc3)c2-n2cccc2)CC1 -23.6%, CNc1ccc(-c2nc(-c3ccccc3C)no2)cc1[N+](=O)[O-] 49.4%, COc1ccc(C2=C(C(C)=O)Sc3nnc(-c4ccc(Cl)cc4)n3N2C(C)=O)cc1OC -16.5%, CCCn1c2ccccc2c2cnn(CC(=O)NCCCN3CCCCC3)c(=O)c21 -2.03%, CCOc1ccc(NC(=O)c2sc3nc4c(c(-c5ccccc5)c3c2N)C(=O)CC(C)(C)C4)cc1 -20.3%, Cc1ccc(S(=O)(=O)c2cnc(SCC(=O)Nc3ccc4c(c3)OCCO4)[nH]c2=O)cc1Cl -18%, CCOc1cc(C2C(C(=O)OC)=C(C)NC3=C2C(=O)c2ccccc23)ccc1OC (stereo not given) -17%, CCc1cc(-c2n[nH]c(C)c2-c2ccc3c(c2)OCCO3)c(O)cc1O -27.6%, Cc1ccccc1-c1ccnc2[nH]n(-c3ccccc3)c(=O)c12 -30.2%, O=S(=O)(NCC(c1ccco1)N1CCOCC1)c1ccc(Br)cc1 (stereo not given) -17.2%, COc1ccc(OC)c(CN2CCN(S(=O)(=O)c3ccccc3)CC2)c1 -19.4%, Cc1ccc2oc(C(=O)N(Cc3ccc(N(C)C)cc3)CC3CCCO3)c(C)c2c1 (stereo not given) -15.9%
